Changes are numbered by the printed parent chain. No constants are given. Whether binding was seen depends on the method and setting. Binding seen in cells or lysates may run through a third protein. Some binding calls cover weakened binding; strength is not graded here. For some assays here: Sequences can lack the tags named with a protein.
What was measured:
[1] = molecular target: HA-Zdhhc5^ANYR (mouse Zdhhc5 Arg144Ala) (mouse) (UniProt Q8VDZ4); assay: co-IP; HA-tagged mouse Zdhhc proteins transfected into 293T ZDHHC5 KO and control cells; lysis in 50 mM Tris-HCl pH 7.4, 150 mM NaCl, 2 mM EDTA, 1% DDM; anti-HA magnetic beads overnight at 4 °C; washes in TBS with 0.5% DDM; blots for endogenous GOLGA7 or ZDHHC9
[2] = molecular target: HA-Zdhhc5^ANAA (mouse Zdhhc5 triple alanine mutant) (mouse) (UniProt Q8VDZ4); assay: as above
[3] = molecular target: HA-tagged mouse Zdhhc5, wild type (mouse) (UniProt Q8VDZ4); assay: as above
[4] = molecular target: HA-Zdhhc5^ANYA (mouse Zdhhc5 double mutant) (mouse) (UniProt Q8VDZ4); assay: as above
[5] = molecular target: HA-Zdhhc5^RNAR (mouse Zdhhc5 Tyr146Ala) (mouse) (UniProt Q8VDZ4); assay: as above
[6] = molecular target: HA-Zdhhc5^RNAA (mouse Zdhhc5 double mutant) (mouse) (UniProt Q8VDZ4); assay: as above
[7] = molecular target: HA-Zdhhc5^RNYA (mouse Zdhhc5 Arg147Ala) (mouse) (UniProt Q8VDZ4); assay: as above
[8] = molecular target: T1, 3xFLAG-GOLGA7B (human), wild type (human) (UniProt Q2TAP0); assay: co-IP; FLAG-tagged human GOLGA7 or GOLGA7B constructs transfected into 293T GOLGA7 KO and control cells; lysis with 1% DDM; anti-FLAG M2 magnetic beads overnight at 4 °C; blots for endogenous ZDHHC5, ZDHHC8, ZDHHC9
T1 sequence: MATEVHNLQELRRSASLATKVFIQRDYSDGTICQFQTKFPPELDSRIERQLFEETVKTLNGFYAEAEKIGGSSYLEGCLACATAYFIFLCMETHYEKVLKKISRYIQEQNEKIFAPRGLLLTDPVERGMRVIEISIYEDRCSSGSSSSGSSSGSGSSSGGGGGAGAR

Chains of the proteins cited; added tags and fusions are not shown. Lines headed by an entry give the natural chain unless they say otherwise; changes in a name come on top. A line that says so, or that is headed by a name, gives the form on record, which may keep a tag or linker.
UniProt Q8VDZ4: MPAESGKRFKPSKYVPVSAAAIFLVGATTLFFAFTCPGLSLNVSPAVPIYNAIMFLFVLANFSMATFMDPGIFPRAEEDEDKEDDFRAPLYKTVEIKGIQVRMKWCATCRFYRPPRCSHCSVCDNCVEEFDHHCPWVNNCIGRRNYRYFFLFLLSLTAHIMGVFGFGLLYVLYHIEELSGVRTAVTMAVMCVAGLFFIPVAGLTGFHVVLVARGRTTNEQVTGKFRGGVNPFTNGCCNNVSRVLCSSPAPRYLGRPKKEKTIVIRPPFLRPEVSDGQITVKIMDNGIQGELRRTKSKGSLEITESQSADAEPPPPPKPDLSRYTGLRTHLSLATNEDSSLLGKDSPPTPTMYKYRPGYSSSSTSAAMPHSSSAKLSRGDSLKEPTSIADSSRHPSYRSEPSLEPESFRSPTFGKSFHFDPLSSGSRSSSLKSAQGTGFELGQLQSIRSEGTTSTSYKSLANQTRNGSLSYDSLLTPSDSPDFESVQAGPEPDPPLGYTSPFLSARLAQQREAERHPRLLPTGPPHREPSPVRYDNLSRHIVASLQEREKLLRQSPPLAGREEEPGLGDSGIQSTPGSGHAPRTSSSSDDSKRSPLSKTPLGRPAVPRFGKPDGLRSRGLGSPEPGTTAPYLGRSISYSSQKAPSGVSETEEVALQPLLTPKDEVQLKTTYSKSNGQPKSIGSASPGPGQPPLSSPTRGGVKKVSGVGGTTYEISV
HA-Zdhhc5^ANYR (mouse Zdhhc5 Arg144Ala) (Q8VDZ4, form named): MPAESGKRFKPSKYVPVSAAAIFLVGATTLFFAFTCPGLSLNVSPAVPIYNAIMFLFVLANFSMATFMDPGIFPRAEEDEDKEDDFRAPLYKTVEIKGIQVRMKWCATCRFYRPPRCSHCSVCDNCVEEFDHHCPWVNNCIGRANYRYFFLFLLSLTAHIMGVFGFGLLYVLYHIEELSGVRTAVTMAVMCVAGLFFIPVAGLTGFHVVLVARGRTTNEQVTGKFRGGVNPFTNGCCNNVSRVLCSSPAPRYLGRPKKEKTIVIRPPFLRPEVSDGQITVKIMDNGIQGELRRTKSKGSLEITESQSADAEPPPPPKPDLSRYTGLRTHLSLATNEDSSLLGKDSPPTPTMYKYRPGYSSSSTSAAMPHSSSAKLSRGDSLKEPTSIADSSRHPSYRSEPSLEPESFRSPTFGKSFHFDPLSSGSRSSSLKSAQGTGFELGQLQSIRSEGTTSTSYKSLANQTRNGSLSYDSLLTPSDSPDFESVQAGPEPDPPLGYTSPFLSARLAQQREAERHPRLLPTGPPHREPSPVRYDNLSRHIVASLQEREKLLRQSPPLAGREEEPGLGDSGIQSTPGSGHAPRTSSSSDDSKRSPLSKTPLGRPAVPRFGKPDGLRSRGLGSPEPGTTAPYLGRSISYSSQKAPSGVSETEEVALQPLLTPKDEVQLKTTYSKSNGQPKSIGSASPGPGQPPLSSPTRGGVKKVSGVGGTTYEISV
HA-Zdhhc5^ANAA (mouse Zdhhc5 triple alanine mutant) (Q8VDZ4, form named): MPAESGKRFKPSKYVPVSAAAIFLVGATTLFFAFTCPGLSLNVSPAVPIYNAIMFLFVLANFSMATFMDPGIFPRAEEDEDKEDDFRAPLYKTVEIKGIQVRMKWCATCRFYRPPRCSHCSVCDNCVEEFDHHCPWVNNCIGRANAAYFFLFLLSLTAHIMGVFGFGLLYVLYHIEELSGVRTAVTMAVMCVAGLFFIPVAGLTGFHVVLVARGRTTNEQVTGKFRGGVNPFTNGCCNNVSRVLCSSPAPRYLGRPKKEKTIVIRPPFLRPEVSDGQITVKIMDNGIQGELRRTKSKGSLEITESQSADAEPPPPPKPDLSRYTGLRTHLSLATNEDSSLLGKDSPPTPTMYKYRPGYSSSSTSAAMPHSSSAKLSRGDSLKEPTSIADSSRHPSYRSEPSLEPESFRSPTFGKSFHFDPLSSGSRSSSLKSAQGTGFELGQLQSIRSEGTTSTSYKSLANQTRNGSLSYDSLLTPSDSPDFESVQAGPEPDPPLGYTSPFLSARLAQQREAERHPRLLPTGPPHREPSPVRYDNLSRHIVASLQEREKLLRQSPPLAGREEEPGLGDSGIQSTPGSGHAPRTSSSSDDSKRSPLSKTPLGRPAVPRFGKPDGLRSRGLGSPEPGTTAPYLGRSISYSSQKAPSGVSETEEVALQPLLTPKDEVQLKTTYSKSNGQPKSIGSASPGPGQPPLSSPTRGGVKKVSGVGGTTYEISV
HA-Zdhhc5^ANYA (mouse Zdhhc5 double mutant) (Q8VDZ4, form named): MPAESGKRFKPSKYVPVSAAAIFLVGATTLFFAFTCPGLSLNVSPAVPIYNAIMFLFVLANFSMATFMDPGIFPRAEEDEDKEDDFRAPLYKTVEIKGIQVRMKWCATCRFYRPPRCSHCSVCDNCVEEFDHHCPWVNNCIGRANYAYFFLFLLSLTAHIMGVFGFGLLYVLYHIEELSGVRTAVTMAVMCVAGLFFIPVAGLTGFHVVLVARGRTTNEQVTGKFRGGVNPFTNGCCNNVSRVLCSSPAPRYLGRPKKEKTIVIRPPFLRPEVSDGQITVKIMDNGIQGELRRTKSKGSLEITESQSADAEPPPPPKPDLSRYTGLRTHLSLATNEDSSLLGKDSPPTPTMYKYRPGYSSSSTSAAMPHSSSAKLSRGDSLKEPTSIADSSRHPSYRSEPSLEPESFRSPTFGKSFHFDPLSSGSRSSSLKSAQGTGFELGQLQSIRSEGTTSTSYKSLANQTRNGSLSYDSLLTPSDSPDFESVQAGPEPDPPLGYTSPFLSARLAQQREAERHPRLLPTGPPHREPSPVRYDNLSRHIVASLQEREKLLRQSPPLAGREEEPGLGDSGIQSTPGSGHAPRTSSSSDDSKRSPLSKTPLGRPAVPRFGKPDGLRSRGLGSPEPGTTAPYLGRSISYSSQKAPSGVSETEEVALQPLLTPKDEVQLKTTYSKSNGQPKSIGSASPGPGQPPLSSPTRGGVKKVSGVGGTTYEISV
HA-Zdhhc5^RNAR (mouse Zdhhc5 Tyr146Ala) (Q8VDZ4, form named): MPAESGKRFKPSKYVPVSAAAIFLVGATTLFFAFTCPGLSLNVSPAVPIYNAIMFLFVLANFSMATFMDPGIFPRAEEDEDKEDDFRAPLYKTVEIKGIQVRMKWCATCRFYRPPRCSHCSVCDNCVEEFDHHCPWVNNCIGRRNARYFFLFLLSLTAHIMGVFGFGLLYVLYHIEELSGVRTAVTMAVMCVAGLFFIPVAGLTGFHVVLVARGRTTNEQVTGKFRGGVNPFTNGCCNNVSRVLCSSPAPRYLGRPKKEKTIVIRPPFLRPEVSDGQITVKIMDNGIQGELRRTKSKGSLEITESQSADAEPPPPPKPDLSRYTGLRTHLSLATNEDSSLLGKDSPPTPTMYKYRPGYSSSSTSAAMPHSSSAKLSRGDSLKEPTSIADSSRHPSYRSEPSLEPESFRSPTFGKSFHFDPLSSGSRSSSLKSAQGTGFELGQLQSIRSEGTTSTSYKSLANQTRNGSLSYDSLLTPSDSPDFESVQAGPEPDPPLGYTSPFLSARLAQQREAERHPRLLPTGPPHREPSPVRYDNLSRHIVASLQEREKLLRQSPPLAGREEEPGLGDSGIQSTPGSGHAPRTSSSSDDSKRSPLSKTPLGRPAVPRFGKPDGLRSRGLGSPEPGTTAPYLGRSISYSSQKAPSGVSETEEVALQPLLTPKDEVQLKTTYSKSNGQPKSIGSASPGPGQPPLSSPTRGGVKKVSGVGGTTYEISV
HA-Zdhhc5^RNAA (mouse Zdhhc5 double mutant) (Q8VDZ4, form named): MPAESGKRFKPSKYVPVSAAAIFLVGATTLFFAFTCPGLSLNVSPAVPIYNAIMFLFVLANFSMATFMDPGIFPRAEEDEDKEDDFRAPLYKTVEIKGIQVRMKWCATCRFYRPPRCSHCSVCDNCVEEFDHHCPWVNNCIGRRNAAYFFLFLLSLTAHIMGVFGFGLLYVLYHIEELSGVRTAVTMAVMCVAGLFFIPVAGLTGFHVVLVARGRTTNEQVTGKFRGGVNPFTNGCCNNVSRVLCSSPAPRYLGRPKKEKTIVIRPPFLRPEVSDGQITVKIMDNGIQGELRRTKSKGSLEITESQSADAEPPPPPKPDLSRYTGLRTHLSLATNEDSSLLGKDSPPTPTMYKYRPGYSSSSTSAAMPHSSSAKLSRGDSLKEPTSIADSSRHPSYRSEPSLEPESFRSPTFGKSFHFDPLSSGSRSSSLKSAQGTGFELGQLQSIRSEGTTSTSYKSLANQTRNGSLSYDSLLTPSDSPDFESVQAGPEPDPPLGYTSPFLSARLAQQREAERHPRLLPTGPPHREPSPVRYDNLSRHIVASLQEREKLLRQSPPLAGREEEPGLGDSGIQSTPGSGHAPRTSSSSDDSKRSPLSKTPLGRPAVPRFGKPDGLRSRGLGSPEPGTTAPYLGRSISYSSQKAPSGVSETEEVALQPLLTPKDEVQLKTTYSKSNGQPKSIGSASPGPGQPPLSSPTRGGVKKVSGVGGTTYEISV
HA-Zdhhc5^RNYA (mouse Zdhhc5 Arg147Ala) (Q8VDZ4, form named): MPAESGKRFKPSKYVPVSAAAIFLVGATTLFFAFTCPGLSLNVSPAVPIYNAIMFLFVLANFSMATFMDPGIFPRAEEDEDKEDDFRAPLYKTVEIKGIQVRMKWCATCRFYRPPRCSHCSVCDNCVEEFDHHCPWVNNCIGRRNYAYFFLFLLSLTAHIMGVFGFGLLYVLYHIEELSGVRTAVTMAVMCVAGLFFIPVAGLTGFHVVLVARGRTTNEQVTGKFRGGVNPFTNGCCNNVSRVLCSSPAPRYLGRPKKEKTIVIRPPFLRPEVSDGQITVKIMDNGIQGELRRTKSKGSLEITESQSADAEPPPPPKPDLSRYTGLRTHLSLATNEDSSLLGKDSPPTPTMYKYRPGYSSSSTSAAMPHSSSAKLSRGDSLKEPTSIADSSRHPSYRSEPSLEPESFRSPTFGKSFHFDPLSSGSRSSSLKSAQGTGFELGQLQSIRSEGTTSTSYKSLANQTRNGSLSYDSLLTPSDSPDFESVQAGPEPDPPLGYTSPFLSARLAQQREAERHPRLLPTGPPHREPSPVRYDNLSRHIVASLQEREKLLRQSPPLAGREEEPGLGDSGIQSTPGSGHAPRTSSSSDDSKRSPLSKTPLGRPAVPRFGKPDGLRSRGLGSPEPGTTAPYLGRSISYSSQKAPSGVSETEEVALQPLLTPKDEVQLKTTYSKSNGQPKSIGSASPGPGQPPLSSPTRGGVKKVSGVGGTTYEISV
UniProt Q7Z5G4: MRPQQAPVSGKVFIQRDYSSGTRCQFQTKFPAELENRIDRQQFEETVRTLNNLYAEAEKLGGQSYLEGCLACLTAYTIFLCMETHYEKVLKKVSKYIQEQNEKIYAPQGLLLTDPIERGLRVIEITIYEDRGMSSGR
UniProt Q9Y397: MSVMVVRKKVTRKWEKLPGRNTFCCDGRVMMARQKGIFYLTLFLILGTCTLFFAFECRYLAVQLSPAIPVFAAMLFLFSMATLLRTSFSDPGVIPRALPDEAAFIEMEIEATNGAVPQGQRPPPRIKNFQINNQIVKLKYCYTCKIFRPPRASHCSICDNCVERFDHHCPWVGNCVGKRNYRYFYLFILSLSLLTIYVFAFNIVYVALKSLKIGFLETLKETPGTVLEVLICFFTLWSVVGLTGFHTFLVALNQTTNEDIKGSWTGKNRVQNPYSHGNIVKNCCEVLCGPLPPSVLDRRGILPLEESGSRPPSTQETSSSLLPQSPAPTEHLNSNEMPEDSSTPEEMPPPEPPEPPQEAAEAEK
UniProt Q9ULC8: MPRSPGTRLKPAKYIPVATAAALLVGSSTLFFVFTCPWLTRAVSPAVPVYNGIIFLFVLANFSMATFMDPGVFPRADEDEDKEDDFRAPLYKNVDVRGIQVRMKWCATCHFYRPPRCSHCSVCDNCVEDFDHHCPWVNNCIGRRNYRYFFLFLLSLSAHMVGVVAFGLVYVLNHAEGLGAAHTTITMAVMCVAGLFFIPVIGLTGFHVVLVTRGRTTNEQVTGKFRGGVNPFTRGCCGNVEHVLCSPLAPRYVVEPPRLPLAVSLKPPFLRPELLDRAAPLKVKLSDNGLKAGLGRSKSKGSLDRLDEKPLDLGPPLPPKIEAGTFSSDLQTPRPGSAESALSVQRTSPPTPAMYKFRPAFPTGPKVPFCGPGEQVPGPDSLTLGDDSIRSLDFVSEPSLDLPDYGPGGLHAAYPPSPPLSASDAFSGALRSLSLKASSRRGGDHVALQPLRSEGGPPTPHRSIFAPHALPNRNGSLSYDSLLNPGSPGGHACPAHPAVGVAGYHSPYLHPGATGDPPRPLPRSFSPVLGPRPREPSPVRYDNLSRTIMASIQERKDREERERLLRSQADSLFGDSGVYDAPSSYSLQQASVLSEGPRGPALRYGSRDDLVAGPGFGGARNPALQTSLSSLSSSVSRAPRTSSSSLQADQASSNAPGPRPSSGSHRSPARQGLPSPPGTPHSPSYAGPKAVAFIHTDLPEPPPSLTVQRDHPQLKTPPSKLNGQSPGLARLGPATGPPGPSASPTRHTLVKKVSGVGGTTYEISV

[9] = molecular target: 3xFLAG-GOLGA7 (human), wild type (human) (UniProt Q7Z5G4); assay: as above
[10] = molecular target: T2, GOLGA7B^2CS (human GOLGA7B Cys78Ser Cys81Ser), 3xFLAG (human) (UniProt Q2TAP0); assay: as above
T2 sequence: T1 sequence with C78S, C81S

| binding [1] | binding [2] | binding [3] | binding [4] | binding [5] | binding [6] | binding [7] | binding [8] | binding [9] | binding [10] | Substance |
| --- | --- | --- | --- | --- | --- | --- | --- | --- | --- | --- |
| no binding | no binding | no binding | no binding | no binding | no binding | no binding | no binding | binds |  | endogenous human ZDHHC9 (from UniProt Q9Y397 1-364) (enzyme) |
|  |  |  |  |  |  |  | binds |  | no binding | endogenous human ZDHHC8 (from UniProt Q9ULC8 1-765) (enzyme) |

— PMC12528901
